Measurements published in patent US6319955A, “Use of MEK1 inhibitors as protective agents against damage due to ischemia” (priority 2000, dated 2001).
Numbered stars: 1 amine (or outer) side, 2 acyl side, 3 side chain; on linkers, the order of the positions; unused ones are H or OH. Bridge positions count the residues as written; N and C are the ends. Square brackets hold non-standard residues; d marks the D form. Peptide text beside a SMILES is read from it. I, II: the chains in the order shown. Actinocin(9to1) = Cc1c2oc3c(C)ccc(C(=O)[*:1])c3nc-2c(C(=O)[*:2])c(N)c1=O; NMeV = CN[C@H](C(=O)O)C(C)C; Sar = CNCC(=O)O

Legend:
HT22 cells [1] = assay: HT22 cell death by TNFα plus actinomycin D (MTT assay); format: cell-based, mouse; details: each agent alone
HT22 cells [2] = format: cell-based, mouse

Row | Compound | cell death induced by single agent (HT22 cells [1]) | A23187 concentration inducing death in HT22 cells (HT22 cells [2]) | cell death induced (HT22 cells [2])
1 | Cc1c2oc3c(C)ccc(C(=O)N[C@@H]4C(=O)N[C@H](C(C)C)C(=O)N5CCC[C@H]5C(=O)N(C)CC(=O)N(C)[C@@H](C(C)C)C(=O)O[C@@H]4C)c3nc-2c(C(=O)N[C@@H]2C(=O)N[C@H](C(C)C)C(=O)N3CCC[C@H]3C(=O)N(C)CC(=O)N(C)[C@@H](C(C)C)C(=O)O[C@@H]2C)c(N)c1=O [actinomycin D] (I: T[dV]P[Sar][NMeV] / II: T[dV]P[Sar][NMeV]; ester I:1-I:C, II:1-II:C; linker I:N-II:N via Actinocin(9to1)) | Neither TNFα nor actinomycin D induced death | – | –
2 | CNc1ccc2oc(C[C@H]3O[C@@]4(CC[C@H]3C)O[C@H]([C@H](C)C(=O)c3ccc[nH]3)[C@H](C)C[C@H]4C)nc2c1C(=O)O [A23187] | – | > 300 nM | extensive cell death
3 | TNFα | Neither TNFα nor actinomycin D induced death | – | –
